Assay results reported in the supplement of paper PMC3334620.
Whole data set: some 33,000 sequences, median “E-score (-0.5 to 0.5)” near -0.043, cut for the highest 2% near 0.37. Some of the results follow.

What follows are sequences tested against T1, Upc2 (UniProt Q12151) (assay: PBM E-score (8-mer binding enrichment) (E-score (-0.5 to 0.5)); higher = stronger / more preferred TF binding; most listed sequences are background and not binding sites). Details: protein concentration: 200 nM; construct: GST-full length.
T1 sequence: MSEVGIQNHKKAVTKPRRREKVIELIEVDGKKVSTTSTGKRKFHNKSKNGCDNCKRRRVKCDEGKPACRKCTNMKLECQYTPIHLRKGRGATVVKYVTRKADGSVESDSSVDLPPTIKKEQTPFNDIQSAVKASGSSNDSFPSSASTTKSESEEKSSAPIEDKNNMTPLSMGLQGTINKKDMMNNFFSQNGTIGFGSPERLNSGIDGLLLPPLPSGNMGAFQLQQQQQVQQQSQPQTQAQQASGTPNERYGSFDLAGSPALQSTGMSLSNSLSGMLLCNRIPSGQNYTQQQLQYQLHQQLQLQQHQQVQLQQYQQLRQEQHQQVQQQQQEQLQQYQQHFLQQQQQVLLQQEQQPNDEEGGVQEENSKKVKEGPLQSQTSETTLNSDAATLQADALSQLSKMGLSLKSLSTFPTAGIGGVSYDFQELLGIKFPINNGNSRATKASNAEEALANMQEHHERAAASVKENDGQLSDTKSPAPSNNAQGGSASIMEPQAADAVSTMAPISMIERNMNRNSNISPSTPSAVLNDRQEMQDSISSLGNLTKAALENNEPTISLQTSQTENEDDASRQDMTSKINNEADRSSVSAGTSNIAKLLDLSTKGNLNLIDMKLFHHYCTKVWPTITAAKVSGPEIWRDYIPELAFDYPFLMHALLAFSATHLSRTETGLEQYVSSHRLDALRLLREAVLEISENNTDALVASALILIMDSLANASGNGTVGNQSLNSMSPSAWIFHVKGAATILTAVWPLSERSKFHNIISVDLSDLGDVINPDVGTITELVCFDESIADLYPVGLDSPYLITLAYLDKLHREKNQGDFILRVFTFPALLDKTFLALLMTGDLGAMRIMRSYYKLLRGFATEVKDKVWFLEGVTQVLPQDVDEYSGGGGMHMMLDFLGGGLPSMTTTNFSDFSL
How it was run: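 Yeast transcription factors carrying a GST tag, as full-length proteins or DNA-binding domains, were produced by PURExpress in vitro transcription/translation. About 100-200 nM protein was applied to universal all-10-mer Agilent arrays, double-stranded by primer extension on fresh or once-stripped slides. Bound protein was detected with fluorescent anti-GST, and scans were normalised with masliner. The Universal PBM Analysis Suite gave each ungapped eight-base word, pooled with its reverse complement, an E-score, a modified Wilcoxon-Mann-Whitney statistic.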

Row | Sequence | PBM E-score
1 | AAGATAGA | -0.167
2 | CAGGTATA | 0.12
3 | ACTTGCGG | -0.0893
4 | ACCAGCTG | -0.00241
5 | TACGTACA | 0.341
6 | AAGTCAGG | -0.0891
7 | CCTTATCG | 0.0525
8 | GCTTCGCC | -0.195
9 | AGGTACGC | 0.163
10 | AGCCGAAT | 0.00349
11 | AACGCTGG | -0.0459
12 | ACGTATTC | 0.119
13 | CACGCGGG | -0.124
14 | CGAGGCTC | 0.207
15 | CTAGCGGA | -0.14
16 | GTAAACCA | 0.0531
17 | ATTCGTAG | 0.285
18 | CTCCCCAC | -0.182
19 | AGTAATGC | -0.142
20 | AACCGAGA | 0.285
21 | ATCCTCTA | -0.167
22 | GGTAAGAA | -0.0315
23 | ATTTTCAG | -0.0121
24 | TCGACAAA | 0.174
25 | GCTAGCCC | -0.317

Row | Sequence | PBM E-score
26 | AGGAGACC | -0.223
27 | CGTGTGCC | -0.175
28 | GCAGCCCC | -0.00473
29 | ATGGCGCG | -0.133
30 | CCGTGCGC | -0.0286
31 | AACGTCGG | 0.176
32 | ATAGCTTA | -0.0835
33 | CATGATGC | -0.211
34 | ATGGCTAG | 0.0528
35 | AGATGCAT | -0.091
36 | CAACTCAG | -0.163
37 | ACCTTACG | 0.235
38 | GGATATTA | -0.0867
39 | AGGTGAGA | -0.184
40 | CTAGTACA | -0.155
41 | GGCTATTA | -0.00322
42 | AGAGCCGA | -0.117
43 | AGCTTTCC | -0.201
44 | ATCCGAAC | 0.146
45 | ACCACGAA | -0.0926
46 | ACGTGATG | -0.0394
47 | AAACAGCG | 0.122
48 | GTGGACGA | -0.165
49 | CGTACCAA | 0.392
50 | CTCTGTGA | -0.189

Row | Sequence | PBM E-score
51 | GACTATTA | -0.0421
52 | TTTAAAAA | 0.0646
53 | CATGTAGG | -0.112
54 | ATGGATAA | -0.083
55 | AGGGAATC | -0.134
56 | ATAACGAT | 0.144
57 | ATGGCAGC | -0.123
58 | AGGAAAAC | 0.0203
59 | CTCACTGC | -0.24
60 | CACGGAGG | -0.124
61 | CATACGGG | 0.367
62 | CAAGTATA | 0.101
63 | AGGGAAGA | -0.199
64 | AGCCGTCG | 0.174
65 | AAATACTG | -0.0466
66 | ACTGCGCG | 0.0273
67 | CGCTGGAC | -0.126
68 | AGTTTCAC | -0.0788
69 | CAGTTGGG | -0.0119
70 | ATAATCGA | 0.12
71 | AGAGTGGG | 0.0465
72 | ACTTCCGC | -0.0321
73 | CAGTTCCC | 0.00928
74 | ACGGCTGC | 0.1
75 | CTCAGGAG | -0.249

Row | Sequence | PBM E-score
76 | CAGACTAG | -0.313
77 | CCATCGAA | -0.132
78 | CACCAGTG | -0.235
79 | ACATGACT | -0.234
80 | CGCAGTCA | -0.228
81 | ACCTGTGG | -0.114
82 | CTATTGCA | 0.00121
83 | ACGCATAC | 0.248
84 | ACCGTCGC | 0.233
85 | AAAATGAC | -0.0293
86 | ACCCTCGA | -0.244
87 | GTACAAGA | 0.13
88 | AGCTGTTA | 0.0162
89 | AGAACCCT | -0.0265
90 | CAAATAGA | -0.0516
91 | CTCCTAGA | -0.195
92 | ATTGAGCA | -0.0735
93 | AAGCTGTA | 0.128
94 | AACCTAGC | -0.0649
95 | CCGTTGGA | -0.249
96 | AGAGAGAG | -0.0416
97 | GATTGTCA | -0.00158
98 | ATAACCCA | -0.0431
99 | TCCGACGA | 0.123
100 | CAATTCCC | -0.165

Row | Sequence | PBM E-score
101 | CATTGCAC | 0.0773
102 | TGCGTCAA | -0.195
103 | ACATTAAT | -0.057
104 | CTTCAATC | -0.0551
105 | CGGAGGGC | -0.066
106 | AGCACTGG | -0.157
107 | CCACTGAG | -0.205
108 | GATCCAAA | -0.0187
109 | TACTACTA | 0.21
110 | AGCTCACC | -0.0772
111 | AGTCCGAG | -0.116
112 | ACAACCAT | 0.0423
113 | ACACTCGT | 0.325
114 | CTCATCTA | 0.0427
115 | TACCGGGA | -0.0406
116 | AGTACAGA | -0.0613
117 | AACATTAA | 0.0427
118 | CGAATCAG | 0.0335
119 | ACCGCATC | -0.136
120 | CGCGATTC | 0.142
121 | AGATCACC | -0.167
122 | GATTCAAA | -0.019
123 | CATCCCAC | -0.0602
124 | GATAGTGC | -0.00518
125 | ACTAATGG | -0.175

Row | Sequence | PBM E-score
126 | CGGCGCCA | 0.0347
127 | ACGCCCCG | 0.0679
128 | CCTGACAC | -0.145
129 | CAGAGCCG | -0.184
130 | ATACCTAG | -0.071
131 | AAGAGGAG | -0.0725
132 | AGTGTGTA | -0.0147
133 | GAGTTATC | 0.187
134 | CACCTTTA | -0.00625
135 | GTAATTGA | 0.0655
136 | GATTTACC | 0.0463
137 | ATGGCAAT | 0.0317
138 | CTAGCTAC | -0.0636
139 | GACCGGGA | -0.224
140 | AATGTCCA | -0.237
141 | CAAATTCA | -0.341
142 | AACAAGCT | 0.055
143 | GTTTGGGA | 0.245
144 | ACACCACT | 0.0512
145 | CCACCCGC | -0.0242
146 | AAACGAAA | 0.46
147 | AAGCTCAG | -0.22
148 | TAAGCTCA | -0.0544
149 | CGTTTGAG | 0.396
150 | CCACACGA | 0.134

Row | Sequence | PBM E-score
151 | GAACTTCC | -0.116
152 | AGATATCA | -0.00096
153 | TGGTATAA | 0.119
154 | CATAACGC | -0.057
155 | CATAGCGC | 0.00114
156 | GATATACC | 0.0293
157 | AAACTTCC | -0.188
158 | AACGCGTT | 0.248
159 | GTTCCCCA | 0.151
160 | TAGGAACA | -0.141
161 | GATGTGAA | 0.135
162 | AACGCGTC | 0.159
163 | AAAACATC | -0.0769
164 | CAACAGAG | -0.265
165 | GCGAAATA | 0.0512
166 | CCATACCC | 0.0447
167 | CGGAGACA | 0.0386
168 | CTGTGGGC | -0.0385
169 | GGCACCGA | -0.169
170 | CTGGGAGC | -0.117
171 | AGGAGGGC | -0.199
172 | CCATTCCA | -0.279
173 | ACCCTTAT | -0.00308
174 | CCCCCGGA | -0.311
175 | AATCGCGC | -0.0864

Row | Sequence | PBM E-score
176 | AAAATTCG | 0.0439
177 | CGCGGTGA | -0.0344
178 | GAAGCAAC | -0.131
179 | CCTCCCCG | 0.0377
180 | TAACCGCA | 0.0604
181 | CGATCAAA | -0.0198
182 | AGGAATTA | 0.0253
183 | ATGCTTGG | -0.148
184 | CTACGAGA | 0.359
185 | ATCGATCC | -0.00332
186 | CATGCGCG | 0.0164
187 | AAGAAGTC | -0.0794
188 | ATTTTTCA | 0.011
189 | AGAAGAGA | -0.177
190 | GCGACCGA | 0.111
191 | AACTTCCC | 0.0684
192 | GGGTTAAA | 0.0764
193 | AATGGAGC | -0.0993
194 | GGTCCGAC | -0.0192
195 | CAGTTTCG | 0.0699
196 | CTTCTGTA | 0.0315
197 | GCCGCGGC | 0.167
198 | AACGCACA | 0.124
199 | ATCATGGA | -0.238
200 | CGAGAAAG | 0.127

Row | Sequence | PBM E-score
201 | AAGTTTGC | -0.00016
202 | CGAGCAGA | 0.0766
203 | AACTCGTA | 0.455
204 | CGCTCTGC | 0.112
205 | ATTTCCTC | -0.0745
206 | CATAGCGG | -0.0762
207 | GGGACTCA | -0.284
208 | TCGCACGA | 0.0732
209 | CAGATTCG | -0.0377
210 | CCAGACCC | -0.192
211 | ACCAGATG | -0.199
212 | CCGAGGGA | 0.00072
213 | CGGGCCCC | -0.124
214 | GGTGACAC | -0.312
215 | AGGCGCCA | -0.196
216 | AAAAACTT | -0.0704
217 | CCTGCTCC | -0.0623
218 | AATCATGA | 0.0697
219 | TCAAGACA | -0.286
